What all share (assay): protein-binding microarray (PBM)
Common to all, as to settings: PBM: ~300 nM protein, 6 mM HEPES pH 7.8, 80 mM KCl, 0.5 mM EDTA, 0.5 mM EGTA, 6% glycerol, 35 ng/ul poly-dIdC, 1% milk, 1 h, room temperature; Ap Aiptasia and Nv Nematostella (sea anemones) / Co Capsaspora / Aq Amphimedon (sponge) / Dm Drosophila / Hu human; RHD is the Rel homology domain; high values mean tight binding; most listed sequences are background and not binding sites; double strand, one strand shown

Assay [1] deals with T1, GST-Nv-NF-kB (Cys allele) (UniProt E5G601).
T1 sequence: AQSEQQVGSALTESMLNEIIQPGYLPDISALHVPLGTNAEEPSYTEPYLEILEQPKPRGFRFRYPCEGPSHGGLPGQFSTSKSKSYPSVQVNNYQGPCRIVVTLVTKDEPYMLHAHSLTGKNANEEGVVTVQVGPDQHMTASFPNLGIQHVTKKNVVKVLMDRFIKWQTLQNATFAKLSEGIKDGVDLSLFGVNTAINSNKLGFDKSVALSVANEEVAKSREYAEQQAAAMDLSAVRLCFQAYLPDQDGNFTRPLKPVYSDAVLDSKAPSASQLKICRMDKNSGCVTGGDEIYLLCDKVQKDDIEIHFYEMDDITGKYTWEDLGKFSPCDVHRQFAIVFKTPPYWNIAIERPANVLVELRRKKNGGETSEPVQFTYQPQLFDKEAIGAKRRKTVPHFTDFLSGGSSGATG

In the next assay the target is T2, GST-Dm-Relish (UniProt Q94527).
T2 sequence: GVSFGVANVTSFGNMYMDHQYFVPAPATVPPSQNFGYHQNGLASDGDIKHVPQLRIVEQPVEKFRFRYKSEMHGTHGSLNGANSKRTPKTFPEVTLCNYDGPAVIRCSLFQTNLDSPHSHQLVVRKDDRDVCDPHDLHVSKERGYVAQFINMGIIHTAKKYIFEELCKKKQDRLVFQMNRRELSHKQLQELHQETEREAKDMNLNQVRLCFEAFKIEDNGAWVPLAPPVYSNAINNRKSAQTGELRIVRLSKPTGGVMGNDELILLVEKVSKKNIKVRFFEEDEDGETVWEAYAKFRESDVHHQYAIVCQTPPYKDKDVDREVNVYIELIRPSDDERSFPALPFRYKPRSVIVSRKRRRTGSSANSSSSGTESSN

Another assay concerns the target T3, GST-Co-NF-kB (UniProt F1ARL5).
T3 sequence: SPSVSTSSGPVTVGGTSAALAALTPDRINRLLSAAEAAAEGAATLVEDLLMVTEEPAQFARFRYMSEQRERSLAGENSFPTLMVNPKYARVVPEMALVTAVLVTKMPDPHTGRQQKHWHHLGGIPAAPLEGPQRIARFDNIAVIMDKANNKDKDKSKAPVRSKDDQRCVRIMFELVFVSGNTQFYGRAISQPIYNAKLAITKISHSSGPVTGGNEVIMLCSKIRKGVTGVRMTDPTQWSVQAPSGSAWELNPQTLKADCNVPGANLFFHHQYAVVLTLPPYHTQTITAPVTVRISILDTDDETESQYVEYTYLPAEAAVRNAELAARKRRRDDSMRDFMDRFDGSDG

Among the data in paper PMC5700166 are binding signal values, retold here.

This is a selection; strong and weak results do not stand in their true shares. The list includes weakly bound sequences.

Regarding “CCGATTAACATCAAAACCCCCCTTGATGTTAATCGGGTCTTGATTCGCTTGACGCTGCTG”, the binding signal worked out at 7.32 z-score in assay [1] and 10.5 z-score with GST-Dm-Relish.

Turning to “CCGATTAACATCACGGGAAACTCTGATGTTAATCGGGTCTTGATTCGCTTGACGCTGCTG”, the binding signal in assay [1] came to 4.12 z-score; with GST-Dm-Relish it was 1.55 z-score.

Turning to “CCGATTAACATCATCCCGGGAAATGATGTTAATCGGGTCTTGATTCGCTTGACGCTGCTG”, the results for the binding signal (in assay [1]; with GST-Dm-Relish) were 2.94 z-score and 0.637 z-score, respectively.

Regarding “CCGATTAACATCAAGGGGAATTATGATGTTAATCGGGTCTTGATTCGCTTGACGCTGCTG”, the binding signal was 10.5 z-score in assay [1] and 7.09 z-score with GST-Dm-Relish.

As to “CCGATTAACATCAGGGGGTGGAATGATGTTAATCGGGTCTTGATTCGCTTGACGCTGCTG”, the binding signal in assay [1] was 3.19 z-score; with GST-Dm-Relish, 2.66 z-score.

For the sequence “CCGATTAACATCACCCGGGTAAATGATGTTAATCGGGTCTTGATTCGCTTGACGCTGCTG”, the values for the binding signal (in assay [1]; with GST-Dm-Relish) were 0.216 z-score and 0.968 z-score, respectively.

“CCGATTAACATCAGAAACTCCCCTGATGTTAATCGGGTCTTGATTCGCTTGACGCTGCTG”: the binding signal was determined as 7.68 z-score in assay [1] and 7.08 z-score with GST-Dm-Relish.

For “CCGATTAACATCAAATTTTCCCATGATGTTAATCGGGTCTTGATTCGCTTGACGCTGCTG”, the binding signal in assay [1] was 5.18 z-score; in the assay with GST-Dm-Relish, 1.94 z-score.

As to “CCGATTAACATCAAGGGGGGACTTGATGTTAATCGGGTCTTGATTCGCTTGACGCTGCTG”, the binding signal in assay [1] came to 5.56 z-score; with GST-Dm-Relish, 5.09 z-score.

As for “CCGATTAACATCACCACTTTCCCTGATGTTAATCGGGTCTTGATTCGCTTGACGCTGCTG”, the values for the binding signal (in assay [1]; with GST-Dm-Relish) were 4.07 z-score and 1.32 z-score, respectively.

“CCGATTAACATCAACACTCCCCCTGATGTTAATCGGGTCTTGATTCGCTTGACGCTGCTG”: the binding signal in assay [1] is 4.24 z-score; in the assay with GST-Dm-Relish, 2.43 z-score.

In the case of “CCGATTAACATCAAAACCCCCCATGATGTTAATCGGGTCTTGATTCGCTTGACGCTGCTG”, the binding signal turned out to be 6.62 z-score in assay [1] and 9.53 z-score with GST-Dm-Relish.

In the case of “CCGATTAACATCAGGGGAGACAATGATGTTAATCGGGTCTTGATTCGCTTGACGCTGCTG”, the binding signal in assay [1] was found to be 3.18 z-score; in the assay with GST-Dm-Relish it was 0.429 z-score.

For the sequence “CCGATTAACATCAAGCACCCCCTTGATGTTAATCGGGTCTTGATTCGCTTGACGCTGCTG”, the binding signal worked out at 3.21 z-score in assay [1] and 2.85 z-score with GST-Dm-Relish.

With “CCGATTAACATCAAAAGTCCCCGTGATGTTAATCGGGTCTTGATTCGCTTGACGCTGCTG”, the binding signal in assay [1] turned out to be 8.18 z-score; with GST-Dm-Relish, 9.25 z-score.

For “CCGATTAACATCAAAAGATCCCCTGATGTTAATCGGGTCTTGATTCGCTTGACGCTGCTG”, the binding signal in assay [1] amounted to 8.42 z-score; with GST-Dm-Relish, 9.75 z-score.

On to “CCGATTAACATCAGGGCAAACCCTGATGTTAATCGGGTCTTGATTCGCTTGACGCTGCTG”, for which the binding signal with GST-Co-NF-kB came to 0.543 z-score; in the assay with GST-Dm-Relish, 1.14 z-score.

On to “CCGATTAACATCACTATACCCCCTGATGTTAATCGGGTCTTGATTCGCTTGACGCTGCTG”, for which the figures for the binding signal in the assay with GST-Co-NF-kB and in the assay with GST-Dm-Relish were 4.36 z-score and 2.21 z-score, respectively.

As to “CCGATTAACATCAGGGGAAGAACTGATGTTAATCGGGTCTTGATTCGCTTGACGCTGCTG”, the binding signal in the assay with GST-Co-NF-kB came out at 6.9 z-score; with GST-Dm-Relish it was 9.56 z-score.

Turning to “CCGATTAACATCAGGGACTTCACTGATGTTAATCGGGTCTTGATTCGCTTGACGCTGCTG”, the results for the binding signal with GST-Co-NF-kB and with GST-Dm-Relish were -0.354 z-score and 7.9 z-score, respectively.

Turning to “CCGATTAACATCAAAGCTTTCCCTGATGTTAATCGGGTCTTGATTCGCTTGACGCTGCTG”, the binding signal in the assay with GST-Co-NF-kB came to 3.59 z-score; in the assay with GST-Dm-Relish it was 1.47 z-score.

With “CCGATTAACATCACGGGACATACTGATGTTAATCGGGTCTTGATTCGCTTGACGCTGCTG”, the values for the binding signal in the assay with GST-Co-NF-kB and with GST-Dm-Relish were 0.882 z-score and 1.8 z-score, respectively.

On to “CCGATTAACATCAGGAAGGTCCCTGATGTTAATCGGGTCTTGATTCGCTTGACGCTGCTG”, for which the binding signal in the assay with GST-Co-NF-kB turned out to be 0.0241 z-score; with GST-Dm-Relish it was 1.64 z-score.

For “CCGATTAACATCAGGGGATGAATTGATGTTAATCGGGTCTTGATTCGCTTGACGCTGCTG”, the binding signal was 4.99 z-score with GST-Co-NF-kB and 2.75 z-score with GST-Dm-Relish.

Take “CCGATTAACATCAGCACTCCCCCTGATGTTAATCGGGTCTTGATTCGCTTGACGCTGCTG”: the binding signal in the assay with GST-Co-NF-kB turned out to be 3.89 z-score; with GST-Dm-Relish it was 2.23 z-score.

As to “CCGATTAACATCAAGGGGGTACCTGATGTTAATCGGGTCTTGATTCGCTTGACGCTGCTG”, the binding signal with GST-Co-NF-kB worked out at 2.65 z-score; with GST-Dm-Relish, 3.15 z-score.

“CCGATTAACATCAGGAGCTTCCCTGATGTTAATCGGGTCTTGATTCGCTTGACGCTGCTG”: the binding signal with GST-Co-NF-kB turned out to be 0.697 z-score; in the assay with GST-Dm-Relish it was 0.983 z-score.

For the sequence “CCGATTAACATCAGGGAAACACATGATGTTAATCGGGTCTTGATTCGCTTGACGCTGCTG”, the binding signal amounted to 3.05 z-score with GST-Co-NF-kB and 6.06 z-score with GST-Dm-Relish.

In the case of “CCGATTAACATCAGGGACCGCCCTGATGTTAATCGGGTCTTGATTCGCTTGACGCTGCTG”, the binding signal turned out to be 0.508 z-score with GST-Co-NF-kB and 1.91 z-score with GST-Dm-Relish.
